Source: PubChem BioAssay AID686978 (National Center for Advancing Translational Sciences (NCATS), 2013)
Screen size: about 420,000 compounds; about 64,000 (15%) were called active. The shares of active, inactive and inconclusive entries below differ from those in the screen. Calls follow the shape of the dose curve; as a rule, active = well fitted inhibition curve with a large enough effect; inconclusive = small, poorly fitted or top-dose-only effect; inactive = flat fitted curve, though single readings scatter. Potencies of inconclusive entries are left out as doubtful fits.

Assay: qHTS for Inhibitors of human tyrosyl-DNA phosphodiesterase 1 (TDP1): qHTS in cells in absence of CPT; also: nearly all actives have a fitted effect of over 55% in size
Details: DT40 Tdp1-/- hTDP1 cells, no CPT, ATP luminescence, 48 h; activity change, negative = growth inhibition: at 46.2 µM (top of the series) unless noted
In short: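 Chicken DT40 Tdp1-/- cells complemented with human TDP1, screened without camptothecin (DMSO vehicle only), 400 cells/well. Compounds pin-transferred, cells incubated at 37 °C for at least 48 hr. Growth read as ATP-dependent luminescence (CellTiter-Glo, 30 min at RT).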
% is scaled to controls: 0 for no effect and ±100 for the full control effect; potency is read from the fitted curve at half-maximal effect; tags tell the direction and shape of the fitted curve.

**Q.** Which “activity change, negative = growth inhibition” value does the source give for `Cc1noc(NS(=O)(=O)c2ccc(N3Cc4ccccc4C3=O)cc2)c1C` here?
**A.** inactive: -7.13%

**Q.** For `O=C(OCC(=O)N1CCOCC1)c1ccc(N2CCOCC2)c([N+](=O)[O-])c1`, which “activity change, negative = growth inhibition” value is on record?
**A.** inactive: -2.15%

**Q.** Which Potency does the source give for `Cc1cc(C)cc(NS(=O)(=O)c2ccc(-c3cc(C)no3)cc2)c1` here?
**A.** active: 1.16 µM

**Q.** For `COc1cccc(CN2CCNC(=O)C2CC(=O)NC2CCCCCCC2)c1` (configuration not stated), which “activity change, negative = growth inhibition” value is on record?
**A.** inactive: -23.2%

**Q.** With `COCCCNC(=O)C[C@H]1C[C@H](C(=O)N2CCCCC2)[C@@]2(CCc3ccccc3)c3[nH]c4cc(-c5ccco5)ccc4c3CCN2C1=O` as the compound, how does the Potency read?
**A.** inconclusive [inhibitor, single point]

**Q.** With `O=C(COc1cccc(C(F)(F)F)c1)Nc1ccc(S(=O)(=O)N2CCCCC2)cc1` as the compound, how does the Potency read?
**A.** active: 25.9 µM

**Q.** Which Potency does the source give for `Cc1cccc(C(=O)Nc2scc(-c3ccc(Br)cc3)c2C(=O)O)c1` here?
**A.** inconclusive [inhibitor, single point]

**Q.** For `Cc1ccccc1C(=O)N[C@H](C(=O)OCC(=O)NC1CC1)C(C)C`, which “activity change, negative = growth inhibition” value is on record?
**A.** inactive: 28.5%

**Q.** For `O=C(CN1CCN(S(=O)(=O)c2ccc(F)cc2)CC1)c1ccc(O)c(O)c1`, which Potency is on record?
**A.** active: 23.1 µM

**Q.** With `CCOCCCn1c(=NC(=O)c2ccco2)c(C(=O)OCC)cc2c(=O)n3cccc(C)c3nc21` as the compound, how does the Potency read?
**A.** active: 11.6 µM

**Q.** With `C[C@H]1NC(=O)[C@@]2(C)[C@@H](c3ccccc3)[C@H]3COc4ccccc4[C@H]3N2C1=O` as the compound, how does the “activity change, negative = growth inhibition” value read?
**A.** inactive: -11.4%

**Q.** Which Potency does the source give for `COc1ccccc1CN1CCCC(CNC(=O)c2cccc3ccccc23)C1` (configuration not stated) here?
**A.** inconclusive [inhibitor, single point]

**Q.** Which Potency does the source give for `Cc1cccc(S(=O)(=O)N2CCC(CO)(Cc3ccccc3)CC2)c1` here?
**A.** inconclusive [inhibitor, single point]

**Q.** Which activity change, negative = growth inhibition does the source give for `COc1ccc2c(c1)NC(c1ccc(F)cc1)=NC(c1ccc(F)cc1)=N2` here?
**A.** inconclusive: -32.2% [inhibitor]

**Q.** Which Potency does the source give for `Cc1ccc(-n2cc3c(=O)n(C)c(=O)n(C)c3c2)cc1C` here?
**A.** inconclusive [inhibitor, single point]

**Q.** With `O=C1c2ccccc2C(=O)N1CCCCN(C(=O)c1cc2ccccc2oc1=O)c1ccc(F)cc1F` as the compound, how does the Potency read?
**A.** inconclusive [inhibitor, single point]

**Q.** Which “activity change, negative = growth inhibition” value does the source give for `O=C(CCCC(=O)c1ccc(F)cc1)c1ccc(F)cc1` here?
**A.** inactive: 6.12%

**Q.** Which “activity change, negative = growth inhibition” value does the source give for `Cc1cccc(C)c1NC(=O)C(C)N1CCCCC1` (configuration not stated) here?
**A.** inactive: 5.4%

**Q.** For `CCN(CC)C(=O)c1cc(-c2ccccc2OC)on1`, which “activity change, negative = growth inhibition” value is on record?
**A.** inactive: -11.2%

**Q.** For `CCOC(=O)c1cccc(NS(=O)(=O)c2cc(Br)cc3c2N(C(=O)C2CC2)CC3)c1`, which Potency is on record?
**A.** active: 23.1 µM

**Q.** For `O=C(Cc1c[nH]c2ccccc12)OCCOC(=O)Cc1c[nH]c2ccccc12`, which Potency is on record?
**A.** inconclusive [inhibitor, single point]

**Q.** With `COc1ccc(N2CC(C(=O)N[C@H](C(=O)NC3CCCCC3)C(C)C)CC2=O)cc1` (some centres not stated) as the compound, how does the “activity change, negative = growth inhibition” value read?
**A.** inactive: 8.41%

**Q.** For `Cc1cc2occ(CC(=O)N(C)CC(=O)Nc3ccccc3C(F)(F)F)c2cc1C`, which “activity change, negative = growth inhibition” value is on record?
**A.** inactive: -15.8%

**Q.** For `CCn1nnc2cc(C(=O)Nc3cc(OC)cc(OC)c3)ccc21`, which “activity change, negative = growth inhibition” value is on record?
**A.** inactive: -22.5%

**Q.** Which Potency does the source give for `CC(C(=O)NC1CCCCCC1)N(c1ccccc1)S(C)(=O)=O` (configuration not stated) here?
**A.** inconclusive [inhibitor, single point]

**Q.** Which Potency does the source give for `CCCCCCNS(=O)(=O)c1ccc(NC(=O)C2CCCO2)cc1` (configuration not stated) here?
**A.** active: 10.3 µM

**Q.** Which Potency does the source give for `Oc1cccc(C(O)CNCc2ccc(OCc3ccc(Cl)cc3Cl)cc2)c1` (configuration not stated) here?
**A.** active: 14.6 µM

**Q.** For `COc1ccc(NC(=O)C2CCN(C3=NS(=O)(=O)C(c4ccc(C)c(C)c4)=C3C)CC2)cc1OC`, which “activity change, negative = growth inhibition” value is on record?
**A.** inactive: 11.2%

**Q.** For `COc1ccc(S(=O)(=O)N2CCc3ccccc32)cc1NC(C)=O`, which “activity change, negative = growth inhibition” value is on record?
**A.** inactive: -29.5%

**Q.** With `CCOc1ccc(S(=O)(=O)N2CCN(C(=O)c3ccc(Cl)c(S(=O)(=O)N4CCOCC4)c3)CC2)cc1` as the compound, how does the Potency read?
**A.** inconclusive [inhibitor, partial curve, poor fit]

**Q.** With `CC(C)(C)N(Cc1ccccc1)C(=O)COc1cccnc1[N+](=O)[O-]` as the compound, how does the Potency read?
**A.** inconclusive [inhibitor, partial curve]

**Q.** With `CCOC(=O)/C(C#N)=C(C)/C=C1\Sc2ccccc2N1CC` as the compound, how does the Potency read?
**A.** active: 18.4 µM

**Q.** For `COC(=O)c1ccc(OCC2c3cc(OC)c(OC)cc3CCN2C(=O)c2cccc(C)c2)cc1` (configuration not stated), which Potency is on record?
**A.** active: 16.4 µM

**Q.** For `O=C(Nc1ccccc1Cc1ccccc1)c1ccc2c(c1)SC1=NS(=O)(=O)CCN12`, which Potency is on record?
**A.** inconclusive [inhibitor, single point]

**Q.** Which “activity change, negative = growth inhibition” value does the source give for `CC(C)c1[nH]nc2c1C1(CCN(Cc3ccccc3)CC1)C(C#N)=C(N)O2` here?
**A.** inactive: 2.24%

**Q.** Which activity change, negative = growth inhibition does the source give for `COc1cc(NC(=S)N2CCN(C/C=C/c3ccccc3)CC2)cc(OC)c1` here?
**A.** inconclusive: -33.2% [inhibitor]

**Q.** For `CCn1c(CC(=O)Nc2ccccc2)nnc1SCC(=O)NC1=NCCS1`, which Potency is on record?
**A.** inconclusive [inhibitor, single point]

**Q.** With `COc1ccc(CNC(=O)CCS(=O)(=O)c2cc(Br)cc3c2N(C(=O)C2CC2)CC3)cc1` as the compound, how does the Potency read?
**A.** inconclusive [inhibitor, single point]

**Q.** Which “activity change, negative = growth inhibition” value does the source give for `COc1ccc(/C=C/C(=O)OCC(=O)c2cc(C)ccc2C)cc1` here?
**A.** inactive: -16.8%

**Q.** Which Potency does the source give for `COc1cc(OC)cc(C(=O)N2CCC(C(=O)c3ccc(F)cc3)CC2)c1` here?
**A.** inconclusive [inhibitor, partial curve]

**Q.** For `O=c1oc2ccc3ccccc3c2c2c1SC(C(F)(F)F)C2` (configuration not stated), which Potency is on record?
**A.** inconclusive [inhibitor, full curve, poor fit]

**Q.** With `Cc1nn(C)c(C)c1NS(=O)(=O)c1ccc(N2CCCC2=O)cc1` as the compound, how does the Potency read?
**A.** active: 16.4 µM

**Q.** With `CCOc1c(OC)ccc2c3c(c(=O)oc12)CCCC3` as the compound, how does the Potency read?
**A.** inconclusive [inhibitor, partial curve]

**Q.** With `Cc1ccccc1N(C(=O)c1csnn1)C(C(=O)NC1CCCC1)c1ccncc1` (configuration not stated) as the compound, how does the “activity change, negative = growth inhibition” value read?
**A.** inactive: 4.58%

**Q.** With `COc1ccc2oc(C(=O)OCC(=O)N3CCC(C)CC3)c(C)c2c1` as the compound, how does the “activity change, negative = growth inhibition” value read?
**A.** inactive: -15.9%

**Q.** Which “activity change, negative = growth inhibition” value does the source give for `CCN(C[C@H]1N[C@@](CC)(C(=O)OC)[C@H]2C(=O)N(C)C(=O)[C@@H]12)S(=O)(=O)c1ccc(C)cc1` here?
**A.** inactive: -15.2%

**Q.** Which Potency does the source give for `Cc1ccc2c(c1)N(CC(=O)N(Cc1ccc3c(c1)OCO3)CC1CCCO1)C(=O)C(C)O2` (configuration not stated) here?
**A.** inconclusive [inhibitor, partial curve, poor fit]
